In all, about 81,000 sequences were measured (“one-hybrid fitness for binding parS DNA”: median about -0.17, highest 2% from about 0.51 on). The list shows a part of the results. Where only a bound is given, the exact number is not on record here.

B1: Caulobacter ParB omega fusion; a variant is named by its letters at X, in order, B8GW30 (parent)
chain: MESVVVGEPGMSEGRRGLGRGLSALLGEVDAAPAQAPGEQLGGSREAPIEILQRNPDQPRRTFREEDLEDLSNSIREKGVLQPILVRPSPDTAGEYQIVAGERAWRAAQRAGLKTVPIMVRELDDLAVLEIGIIENVQRADLNVLEEALSYKVLMEKFERTQENIAQTIGKSXSHVANXMRLLXLPDEVQSYLVSGELTAXHARAIAAAADPVALAKQIIEGGLSVRETEALARKAPNLSAGKSKGGRPPRVKDTDTQALESDLSSVLGLDVSIDHRGSTGTLTITYATLEQLDDLCNRLTRGI

The variants in this assay derive from B1. The assay can be described thus: one-hybrid fitness for binding parS DNA (scaled: cognate 1, non-cognate 0); higher = stronger binding. Particulars: with parS DNA site. In short, it runs like this:
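Bacterial one-hybrid selection in E. coli USO rpoZ- hisB- pyrF- with a HIS3 reporter carrying the site 19 bp from the promoter, screening Caulobacter ParB libraries with four specificity codons randomised (NNS). Cells grew 48 hours at 37°C on M9-minus-histidine plus 0.1 mM IPTG and 5 mM 3-AT. Plasmids before and after selection were Illumina-sequenced, three replicate libraries pooled, and variants under 10 reads dropped. Fitness is the log change in variant-to-wild-type read ratio, rescaled to cognate 1, non-cognate 0.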
Regarding EERV, the “one-hybrid fitness for binding parS DNA” value is no more than 0.2.
The result for NTRL reads no more than 0.2; that for TFDC, no more than 0.2.
In the case of MVRM, the “one-hybrid fitness for binding parS DNA” value was no more than 0.2.
Under TFPV stands no more than 0.2; under TTAV, no more than 0.2; under LNMS, no more than 0.2.
With PHRT, the “one-hybrid fitness for binding parS DNA” value was no more than 0.2.
The result for QIPG reads no more than 0.2; that for HCHP, no more than 0.2; that for YCTR, no more than 0.2.
As to QPYT, the “one-hybrid fitness for binding parS DNA” value was no more than 0.2.
Under GCGR stands no more than 0.2; under TPHI, no more than 0.2; under DFHR, no more than 0.2.
With SMNS, the “one-hybrid fitness for binding parS DNA” value was no more than 0.2.
Under FFAS stands no more than 0.2; under AFAV, no more than 0.2.
Under GAHL stands no more than 0.2; under ILTD, no more than 0.2; under LLET, no more than 0.2.
As to LFHV, the “one-hybrid fitness for binding parS DNA” value was no more than 0.2.
Under KPLV stands no more than 0.2; under SLAC, no more than 0.2.
Consider CIKR, for which the “one-hybrid fitness for binding parS DNA” value is no more than 0.2.
In the case of NRKC, the “one-hybrid fitness for binding parS DNA” value was no more than 0.2.
Under WISE stands no more than 0.2; under IPQM, no more than 0.2; under LGAG, no more than 0.2.
As for TPTR, the “one-hybrid fitness for binding parS DNA” value was no more than 0.2.
As for LMDY, the “one-hybrid fitness for binding parS DNA” value is no more than 0.2.
As for TPWR, the “one-hybrid fitness for binding parS DNA” value was no more than 0.2.
Under RYAG stands 0.982.
Regarding MHQT, the “one-hybrid fitness for binding parS DNA” value was no more than 0.2.
The result for RYMD reads no more than 0.2; that for YSES, no more than 0.2; that for RDSR, no more than 0.2.
HRHN: the “one-hybrid fitness for binding parS DNA” value is no more than 0.2.
For the variant YPTF, the “one-hybrid fitness for binding parS DNA” value was no more than 0.2.
Under PEMA stands no more than 0.2; under QRYE, no more than 0.2; under LGAF, no more than 0.2.
Under ISGT stands no more than 0.2; under LLGY, no more than 0.2.
The result for CTWR reads no more than 0.2; that for SQNK, no more than 0.2.
For the variant RDWV, the “one-hybrid fitness for binding parS DNA” value was no more than 0.2.
As to PTTI, the “one-hybrid fitness for binding parS DNA” value is no more than 0.2.
Under QNAE stands no more than 0.2; under QSKS, no more than 0.2.
The result for SHQG reads no more than 0.2.
As to RPPP, the “one-hybrid fitness for binding parS DNA” value was no more than 0.2.
The result for RNMP reads no more than 0.2.
Regarding PIRR, the “one-hybrid fitness for binding parS DNA” value is no more than 0.2.
Consider GDTV, for which the “one-hybrid fitness for binding parS DNA” value is no more than 0.2.
Under RIFT stands 0.834.
The result for VSWW reads no more than 0.2; that for YLQS, no more than 0.2.
As to FVPS, the “one-hybrid fitness for binding parS DNA” value was no more than 0.2.
In the case of NGMC, the “one-hybrid fitness for binding parS DNA” value was no more than 0.2.
As to FFNC, the “one-hybrid fitness for binding parS DNA” value was no more than 0.2.
For RRQV, the “one-hybrid fitness for binding parS DNA” value was no more than 0.2.
Under IVSG stands 0.263.
With MAQV, the “one-hybrid fitness for binding parS DNA” value was no more than 0.2.
Under SMFG stands no more than 0.2; under KGIW, no more than 0.2; under FWAS, no more than 0.2.
As to WSTK, the “one-hybrid fitness for binding parS DNA” value was no more than 0.2.
On to LTRK, for which the “one-hybrid fitness for binding parS DNA” value is no more than 0.2.
HWPM: the “one-hybrid fitness for binding parS DNA” value was no more than 0.2.
MLST: the “one-hybrid fitness for binding parS DNA” value is no more than 0.2.
The result for RTID reads 0.203; that for IAQG, no more than 0.2.
The result for AEPQ reads no more than 0.2.
On to RQCM, for which the “one-hybrid fitness for binding parS DNA” value was found to be 0.349.
Under QQID stands no more than 0.2; under TAQA, no more than 0.2; under VAKV, no more than 0.2.
With NWNT, the “one-hybrid fitness for binding parS DNA” value is no more than 0.2.
The result for VSRG reads no more than 0.2.
In the case of SWTC, the “one-hybrid fitness for binding parS DNA” value was no more than 0.2.
For the variant AYHL, the “one-hybrid fitness for binding parS DNA” value is no more than 0.2.
In the case of GNKQ, the “one-hybrid fitness for binding parS DNA” value is no more than 0.2.
As to ECAA, the “one-hybrid fitness for binding parS DNA” value is no more than 0.2.
The result for KRWC reads no more than 0.2; that for CLHV, no more than 0.2.
As for GKVN, the “one-hybrid fitness for binding parS DNA” value was no more than 0.2.
As for NNTF, the “one-hybrid fitness for binding parS DNA” value was no more than 0.2.
WLKT: the “one-hybrid fitness for binding parS DNA” value is no more than 0.2.
As for GHHP, the “one-hybrid fitness for binding parS DNA” value is no more than 0.2.
The result for SYHH reads no more than 0.2.
On to AGIR, for which the “one-hybrid fitness for binding parS DNA” value was no more than 0.2.
On to CLRF, for which the “one-hybrid fitness for binding parS DNA” value is no more than 0.2.
In the case of QYRI, the “one-hybrid fitness for binding parS DNA” value was no more than 0.2.
The result for FVCS reads no more than 0.2; that for GQCW, no more than 0.2.
Turning to CVKC, the “one-hybrid fitness for binding parS DNA” value was no more than 0.2.
Under QRFQ stands no more than 0.2.
Regarding CIEC, the “one-hybrid fitness for binding parS DNA” value is no more than 0.2.
In the case of FDYV, the “one-hybrid fitness for binding parS DNA” value is no more than 0.2.
For HEHG, the “one-hybrid fitness for binding parS DNA” value was no more than 0.2.
Take YGSA: the “one-hybrid fitness for binding parS DNA” value was no more than 0.2.
Under RALL stands no more than 0.2.
The result for RVEE reads no more than 0.2.
Under QGMS stands no more than 0.2; under RPRP, no more than 0.2.
In the case of LIFR, the “one-hybrid fitness for binding parS DNA” value is no more than 0.2.
The result for YRRP reads no more than 0.2.
Under QEEC stands no more than 0.2.
As to WNGT, the “one-hybrid fitness for binding parS DNA” value was no more than 0.2.
YVKY: the “one-hybrid fitness for binding parS DNA” value is no more than 0.2.
Take RNTC: the “one-hybrid fitness for binding parS DNA” value was 0.865.
Under AAVE stands no more than 0.2.
For NTLV, the “one-hybrid fitness for binding parS DNA” value was no more than 0.2.
For the variant CDST, the “one-hybrid fitness for binding parS DNA” value was no more than 0.2.
For RPRN, the “one-hybrid fitness for binding parS DNA” value was no more than 0.2.
For the variant CRGC, the “one-hybrid fitness for binding parS DNA” value was no more than 0.2.
WFYS: the “one-hybrid fitness for binding parS DNA” value was no more than 0.2.
The result for EATC reads no more than 0.2; that for FDCR, no more than 0.2; that for NSDF, no more than 0.2.
PWTG: the “one-hybrid fitness for binding parS DNA” value is no more than 0.2.
TMMV: the “one-hybrid fitness for binding parS DNA” value is no more than 0.2.
Under DMHT stands no more than 0.2; under FYCT, no more than 0.2; under PPTM, no more than 0.2.
Under LIHG stands no more than 0.2; under RHDC, 0.878.
For ICLS, the “one-hybrid fitness for binding parS DNA” value is no more than 0.2.
Under PKIM stands no more than 0.2; under QVTH, no more than 0.2; under HGDH, no more than 0.2.
Under MAIG stands no more than 0.2; under PGSY, no more than 0.2; under PRKT, no more than 0.2.
Under FPAC stands no more than 0.2; under FSSA, no more than 0.2; under FRHT, no more than 0.2.
On to APTL, for which the “one-hybrid fitness for binding parS DNA” value is no more than 0.2.
As for LRFY, the “one-hybrid fitness for binding parS DNA” value is no more than 0.2.
Regarding NLLE, the “one-hybrid fitness for binding parS DNA” value was no more than 0.2.
The result for FHLS reads no more than 0.2; that for LRAM, no more than 0.2.
Under RGWA stands 0.282.
QAKN: the “one-hybrid fitness for binding parS DNA” value is no more than 0.2.
Turning to FDPN, the “one-hybrid fitness for binding parS DNA” value was no more than 0.2.
Regarding KQIR, the “one-hybrid fitness for binding parS DNA” value was no more than 0.2.
ADDR: the “one-hybrid fitness for binding parS DNA” value is no more than 0.2.
The result for CKWT reads no more than 0.2; that for IDHR, no more than 0.2; that for GRLR, no more than 0.2.
Under NGER stands no more than 0.2.
In the case of RTAD, the “one-hybrid fitness for binding parS DNA” value was no more than 0.2.

Values taken from a collection of fitness landscapes (doi:10.1016/j.celrep.2020.107928).
